# Measurements as given in PubChem BioAssay AID1347073 (National Center for Advancing Translational Sciences (NCATS), 2019).
# About 200 (0.44%) of roughly 45,000 compounds were called active. Another 7% or so got no clear call; they are omitted. Calls follow the shape of the dose curve; as a rule, active = well fitted activation curve with a large enough effect; inconclusive = small, poorly fitted or top-dose-only effect; inactive = no such curve, though single readings can be large or run the other way. The list shows a part of the results.
# Assay: qHTS of TDP-43 Inhibitors: NCGC Sytravon Library Screen; also: 0% is about no effect; nearly all actives have a fitted effect of over 55% in size
# Conditions: yeast TDP-43 toxicity rescue, BacTiter-Glo growth, 24 h; series mostly up to 46.1 µM; growth rescue (activation): at the top concentration
# Summary of the method: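 TDP-43-expressing yeast, pregrown in raffinose, seeded at OD600 0.02 in galactose medium with compound for 24 hr at 30 deg C. Growth read by BacTiter-Glo luminescence, so rescue of toxicity appears as activation.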
row,SMILES,growth rescue (activation)
1,Cc1nc2c(cc1C(=O)N/N=C/c1ccc(O)c(O)c1)c(=O)n(C)c(=O)n2C,inactive: -12.8%
2,COc1ccc(-c2cc(=O)oc3cc(O)ccc23)cc1,inactive: 4.58%
3,O=C(NCCCc1ccncc1)C1CCC(=O)N(Cc2cccc(C(F)(F)F)c2)C1 (stereo not drawn),inactive: -1.07%
4,O=C(NCC(=O)N1CCN(c2ccccc2O)CC1)c1ccccc1,inactive: -6.51%
5,COC(=O)c1ccc(C(=O)OC)c(NC(=O)Oc2ccccc2)c1,inactive: 8.9%
6,COCCNC(=O)C1(C)CCCN(C(=O)c2ccc(C)c(F)c2)C1 (stereo not drawn),inactive: 1.2%
7,c1cc2c(cc1C1=NNC(=NC3CC3)SC1)OCCO2,inactive: -24%
8,Cc1cc(NC(=O)c2ccc(F)cc2)n(CCOC(=O)c2ccc(F)cc2)n1,inactive: 13%
9,CC(=O)Nc1ccc(SCC(=O)N(C)C2CCS(=O)(=O)C2)cc1 (stereo not drawn),inactive: 4.19%
10,O=C(NC(=S)Nc1cccc(S(=O)(=O)NC2=NCCC2)c1)c1cc(-c2ccco2)nc2ccccc12,inactive: 1.72%
11,O=C(NCc1ccccc1)C(c1ccccc1F)N(C(=O)c1csnn1)C1CCCC1 (stereo not drawn),inactive: 2.85%
12,COc1ccc(-c2nnc(SCC(=O)Nc3ccc(C(=O)O)cc3)n2-c2ccc(Cl)cc2)cc1,inactive: -2.44%
13,Cc1cc(C(=O)NNC(=O)c2ccc(S(=O)(=O)N(C)C)cc2)c(C)o1,inactive: 13.3%
14,COc1ccc(C)cc1Nc1nc(-c2c[nH]c3ccccc23)cs1,inactive: -5.35%
15,Cc1sc2nc(COC(=O)CNC(=O)c3ccc(C(C)(C)C)cc3)[nH]c(=O)c2c1C,inactive: 14.4%
16,COc1cccc(C2C(C(=O)c3ccc(C)o3)=C(O)C(=O)N2CCN2CCOCC2)c1OC (stereo not drawn),inactive: 6.73%
17,CCNC(=O)C1(C)CCCN(C(=O)c2ccc3c(c2)C(C)(C)CCC3(C)C)C1 (stereo not drawn),inactive: 13.4%
18,CCOc1ccc(N2CC(C(=O)Nc3cc(OCC)c(N4CCOCC4)cc3OCC)CC2=O)cc1 (stereo not drawn),inactive: 21.1%
19,CO/N=C/C(C(C)=O)C(=O)Nc1ccc(Cl)cc1Cl (stereo not drawn),inactive: 6.92%
20,O=C(O)CCCC(=O)N1N=C(c2ccccc2)CC1c1ccc2nccnc2c1 (stereo not drawn),inactive: 2.79%
21,O=C(CN1C(=O)NC2(CCOc3ccccc32)C1=O)c1cccs1 (stereo not drawn),inactive: 9.41%
22,CCCn1nc(NC(=O)CC(C)C)c2cc3cccc(C)c3nc21,inactive: 6.34%
23,COc1ccc(CCN2CC(C(=O)NCc3ccc(F)cc3)CC2=O)cc1OC (stereo not drawn),inactive: 1.73%
24,COc1ccc(CCNC(=O)C2CCCN(c3nc4ccccc4s3)C2)cc1OC (stereo not drawn),inactive: 9.7%
25,COc1ccc(C(=O)NC(C)c2ccc(-n3ccnc3)cc2)cc1[N+](=O)[O-] (stereo not drawn),inactive: 8.95%
26,O=C(/C=C/c1ccc2c(c1)OCO2)c1ccccn1,inactive: 20.7%
27,COc1ccc(Cl)cc1NC(=O)NCCN1CCCCC1,inactive: 16.2%

row,SMILES,growth rescue (activation)
1,CC(C)(C)SCCNC(=O)c1ccc(Cl)c([N+](=O)[O-])c1,inactive: -52.7%
2,CCc1nc2ccc(C(=O)N3CCN(S(=O)(=O)CC)CC3)cn2c1N(CCC(C)C)CCN(C)C,inactive: -2.97%
3,Cc1cc(C)c(S(=O)(=O)n2c([N+](=O)[O-])cnc2C)c(C)c1,inactive: 16.7%
4,COc1ccc(OC)c(N(CC(=O)Nc2cccc(C(F)(F)F)c2)S(C)(=O)=O)c1,inactive: -3.81%
5,COc1ccc(CCNC(=O)c2cc(-c3ccc(Cl)c(Cl)c3)oc2C)cc1,inactive: 8.71%
6,Cc1cccc(C(=O)NNC(=O)CCC(=O)Nc2cccc(Cl)c2C)c1,inactive: 14.4%
7,COc1cccc(C(NC(C)=O)c2nc(-c3cccc(C(=O)O)c3)cs2)c1 (stereo not drawn),inactive: -0.622%
8,COc1ccccc1CNc1nc(C)c(C(=O)N(C)C)s1,inactive: 14.8%
9,CCSc1nnc(NC(=O)NC(C)(C(F)(F)F)C(F)(F)F)s1,inactive: 9.45%
10,Cc1nc2c(-c3ccccc3)c[nH]n2c(=O)c1Cc1ccccc1,inactive: 1.5%
11,CC(C)C(Nc1ccc(C(F)(F)F)cc1[N+](=O)[O-])C(=O)O (stereo not drawn),inactive: -8.62%
12,CC(C)CCNC(=O)CN1N=C(c2ccc(Cl)cc2)CCC1=O,inactive: 13.5%
13,COCOc1ccc(-c2ncc(OC)nc2NC(=O)c2cc(C)oc2C)cc1,inactive: -7.48%
14,CC1CCN(c2ccccc2NC(=O)c2ccc(Br)o2)CC1,inactive: 11.9%
15,O=C(NC1CCCC1)C1CC(O)CN1C(=O)Nc1ccccc1 (stereo not drawn),inactive: 1.77%
16,O=C(C[n+]1cc(-c2ccc(F)cc2)n2c1CCC2)N1c2ccccc2Sc2ccccc21,inactive: -11.3%
17,CC(C)(C)NS(=O)(=O)c1cc(C(=O)Nc2sccc2C#N)ccc1Cl,inactive: 12.2%
18,COc1ccc2[nH]cc(C(=O)NCCc3ccccc3)c(=O)c2c1,inactive: 5.15%
19,Cc1cc(C)n(-c2ccc(S(N)(=O)=O)cc2[N+](=O)[O-])n1,inactive: 8.25%
20,COc1ccc2c(C)nc(Nc3nc(-c4ccccc4)cc(=O)[nH]3)nc2c1,inactive: 11.4%
21,CN(C)S(=O)(=O)c1cccc(NC(=O)c2cc3c(=O)n4ccccc4nc3s2)c1,inactive: -10.8%
22,CC1CCN(C(=O)c2ccc(NS(=O)(=O)c3cccs3)cc2)CC1,inactive: 14.7%
23,CCOC(=O)c1c(CN2CCC(C)CC2)n(C)c2cc(Br)c(OC)cc12,inactive: 11.6%
24,O=[N+]([O-])c1ccc(Sc2cccc3cccnc23)c2cccnc12,inactive: 10.7%
25,CCN1CCN(C(=S)NCC(C)C)CC1,inactive: -9.14%
26,CC(=O)Nc1cccc(Oc2nc(NCCN(C)C)nc3ccsc23)c1,inactive: 2.2%
